Measurements taken from PubChem BioAssay AID2675 (National Center for Advancing Translational Sciences (NCATS), 2010).
The campaign covered roughly 280,000 compounds. About 100 (0.036%) were called active. Inconclusive means that the source gave no clear call. Such entries were picked first, then a sample of the others. Calls come from the whole dose curve; as a rule, active = well fitted inhibition curve with a large enough effect in the signal ratio, with a control signal flat (not every such curve was filed as active); inconclusive = small, poorly fitted or top-dose-only effect, or effect the other way, or a change in a side signal; inactive = no such curve, though single readings can be large or run the other way; the % refers to the signal ratio. Potencies of inconclusive entries are doubtful fits and often do not repeat. A note “side channel” means that the fit belongs to a control or component signal, not to the main read-out.

Molecular target: Muscleblind-like protein 1 (Homo sapiens) (UniProt Q9NR56)
UniProt Q9NR56, sequence (Q9NR56 whole entry, looked up): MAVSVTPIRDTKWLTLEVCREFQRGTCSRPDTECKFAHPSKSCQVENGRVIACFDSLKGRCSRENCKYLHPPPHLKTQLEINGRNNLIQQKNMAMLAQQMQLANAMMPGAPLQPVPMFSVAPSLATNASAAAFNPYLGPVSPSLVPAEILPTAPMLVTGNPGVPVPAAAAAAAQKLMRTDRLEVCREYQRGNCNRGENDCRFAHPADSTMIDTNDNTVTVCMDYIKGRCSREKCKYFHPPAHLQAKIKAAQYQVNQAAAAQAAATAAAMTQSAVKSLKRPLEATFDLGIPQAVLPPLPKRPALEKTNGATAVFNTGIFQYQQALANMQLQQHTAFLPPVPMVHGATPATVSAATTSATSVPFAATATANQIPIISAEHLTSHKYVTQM
Experiment: qHTS Assay for Inhibitors of MBNL1-poly(CUG) RNA binding
Conditions: TR-FRET MBNL1-His/biotin-(CUG)12 binding, 665/545 ratio; activity change, negative = inhibition: at 57.5 µM (top of the series)
In short: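 MBNL1-His + Biotin-(CUG)12, cpd titration 92 nM–58 uM; Tb anti-His Ab 0.055 ng/ul, SA-XL665 5 nM (final); 60 min RT; ratiometric 665/545 nm, Ex 340 nm; normalized to buffer and full-complex controls.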
% is set by controls: 0 for no effect and ±100 for the full control effect; potency is the fitted concentration of half-maximal effect; tags give direction and shape of the fitted curve or compound fluorescence and quenching.

Structure (SMILES) | Potency | activity change, negative = inhibition
CCOC(=O)C1=C(C)N2C(=C(C#N)[C@@H]1c1ccc(C(=O)OC)cc1)SC[C@@]2(O)C(C)(C)C | inconclusive: 39.8 µM [quencher, side channel, single point] | –
Cc1ccc(CN2CCN(CC(=O)N=Nc3c(O)[nH]c4ccccc34)CC2)cc1 | inconclusive: 3.16 µM [quencher, side channel, single point] | –
COC(=O)CCc1nc2ccccc2[nH]c1=O | – | inactive: 3.45%
Cc1ccc(S(=O)(=O)N(CC(=O)NCC2CCCO2)c2cccc([N+](=O)[O-])c2)cc1 (stereo not drawn) | inconclusive: 12.6 µM [quencher, side channel, partial curve] | –
CCN(CC)C(=O)CSc1nc(N)c(C(=O)Nc2ccc(OC)cc2)s1 | inconclusive: 25.1 µM [quencher, single point] | –
Cc1nn(Cc2ccccc2)c(C)c1NC(=O)Cn1nc([N+](=O)[O-])c(Cl)c1C | inconclusive: 15.8 µM [quencher, side channel, partial curve] | –
Cc1c(C#N)c(N=CN(C)C)c(C(=O)c2ccc(Br)cc2)n1-c1ccc(Cl)cc1 | inconclusive: 6.31 µM [fluorescent, side channel, single point] | –
Nc1c(N2CCCC2)cc(Cl)c2nonc12 | inconclusive: 12.6 µM [quencher, side channel, partial curve] | –
CCCC(=O)Nc1cccc(NC(=O)c2ccc3c(c2)OCCO3)c1 | inconclusive: 25.1 µM [quencher, side channel, single point] | –
CCN1CCN(Cc2ccc(NC(=O)c3cc(NC(=O)c4cnnc5ccccc45)cc(OC)c3)cc2C(F)(F)F)CC1 | inconclusive: 15.8 µM [quencher, side channel, partial curve] | –
Cc1cc(Cl)ccc1OCCCC(=O)NCCN1C(=O)S/C(=C\c2cccnc2)C1=O | – | inactive: 30.9%
COc1ccc([C@H]2[C@H](C(=O)OC(C)(C)C)N3N=Cc4ccccc4C3C23C(=O)c2ccccc2C3=O)cc1OC (stereo partly drawn) | inconclusive: 1.78 µM [quencher, side channel, full curve] | –
CC1Oc2ccccc2C=C1/C=N/NC(=O)c1ccccc1 (stereo not drawn) | – | inactive: 26.1%
Clc1nnc2ccc(-c3ccccc3)nn12 | inconclusive: 11.2 µM [quencher, side channel, partial curve] | –
CCOC(=O)C1=C(C)NC(C)=C(C(=O)OC)C1c1cccc([N+](=O)[O-])c1 (stereo not drawn) | inactive | –
N=c1c(C(=O)NCc2ccc3c(c2)OCO3)cc2c(=O)n3ccccc3nc2n1CC1CCCO1 (stereo not drawn) | inconclusive: 3.16 µM [quencher, side channel, full curve] | –
Cc1noc(/C=C/N(C)C)c1S(=O)(=O)N1CCc2ccccc21 | inconclusive: 35.5 µM [quencher, side channel, partial curve] | –
CCOC(=O)CC(NS(=O)(=O)c1ccc(OC)c(C)c1)c1cccc([N+](=O)[O-])c1 (stereo not drawn) | inconclusive: 14.1 µM [quencher, partial curve] | –
O=C(NC1=NCCS1)c1cccc(N2C(=O)c3ccccc3C2=O)c1 | inconclusive: 25.1 µM [quencher, side channel, partial curve] | –
COc1ccc(/C=N/N2C(=O)c3ccccc3C2=O)cc1 | inconclusive: 7.94 µM [quencher, side channel, full curve] | –
Cc1cc(NC(=O)c2ccc([N+](=O)[O-])cc2)n(CCC#N)n1 | inconclusive: 7.08 µM [quencher, side channel, partial curve] | –

Structure (SMILES) | Potency | activity change, negative = inhibition
Cc1ccc(C(=O)/C=C/N(C)C)o1 | – | inactive: 3.82%
CCC(C)NC(=S)NNC(=O)c1ccc(C(C)(C)C)cc1 (stereo not drawn) | – | inactive: -3.8%
COC(=O)c1sc(=S)sc1C(=O)OC | – | inactive: 11.4%
CN(C)S(=O)(=O)c1ccc2c(c1)nc(CCC(=O)NCC1CCCCC1)n2C | – | inactive: -0.372%
O=C1C(Cl)=C(NCCN2CCOCC2)C(=O)c2ccccc21 | inconclusive: 5.01 µM [quencher, side channel, partial curve] | –
COc1ccc([C@@H]2[C@@H]3C(=O)N(C(C)(C)C)C(=O)[C@@H]3[C@]3(Cc4ccc(Cl)cc4)C(=O)N(c4cccc(C)c4)C(=O)N23)cc1 | – | inactive: -6.31%
CCOC(=O)c1cc2sccc2n1CC(=O)N1c2ccccc2CC1C (stereo not drawn) | inconclusive: 3.16 µM [fluorescent, side channel, full curve, poor fit] | –
C/C(=N\NC(=O)c1ccc(Cl)cc1)c1ccccn1 | – | inactive: 28.5%
C=CCNc1ccc(N2C(=O)CCCC2=O)cc1[N+](=O)[O-] | inconclusive: 15.8 µM [quencher, side channel, partial curve] | –
CC(C)c1ccc(C2NC(C(=O)O)CS2)cc1 (stereo not drawn) | – | inactive: -0.251%
COc1ccc(CS(=O)(=O)/C(Cl)=C(/Cl)C(=O)Nc2ccc(OC)nc2)cc1 | – | inactive: -6.93%
Cc1cc2cc(CNC(=O)c3ccc(Br)o3)ccc2n1C | inconclusive: 31.6 µM [quencher, side channel, single point] | –
O=C(C(c1ccccc1)N1CCOCC1)N1CCOCC1 (stereo not drawn) | – | inactive: -12%
COc1ccc(CNC(=O)Cn2cc3c(n2)CCCCC3)cc1 | inconclusive: 5.01 µM [fluorescent, side channel, full curve, poor fit] | –
Cc1ccc2cc(CCNC(=O)C(=O)c3c[nH]c4ccccc34)c(=O)[nH]c2c1 | inconclusive: 28.2 µM [fluorescent, partial curve] | –
C/C=C\C=C/C(=O)Nc1cccc(C2=NOC3(C2)C[C@@H](C(N)=O)N(C(=O)COc2ccc(Cl)cc2)C3)c1 (stereo partly drawn) | – | inactive: 8.73%
CC1C(=O)NN=C1C(=O)N/N=C\C(Br)=C\c1ccccc1 (stereo not drawn) | inconclusive: 7.08 µM [quencher, side channel, full curve] | –
COc1c(OC)c(O)c2c(=O)cc(-c3c(O)cccc3O)oc2c1OC | – | inactive: -7.04%
Cc1ccc(S(=O)(=O)Nc2ccc(N3CCN(C)CC3)nc2)cc1 | – | inactive: -8.44%
CCC(=O)N1CCc2cc(S(=O)(=O)CCC(=O)NC3CCCCC3)ccc21 | – | inactive: -7.25%
Cc1cc(C)c2c(N)c(C(=O)c3ccccc3)sc2n1 | inconclusive: 3.55 µM [quencher, side channel, full curve] | –

Structure (SMILES) | Potency | activity change, negative = inhibition
Cc1ccc(/C=N/NC(=O)c2cc3ccccc3cc2O)o1 | inconclusive: 22.4 µM [quencher, side channel, single point] | –
COCCN(C(=O)COC(=O)COc1ccc(Cl)c(C)c1)c1c(N)n(Cc2ccccc2)c(=O)[nH]c1=O | inconclusive: 50.1 µM [inhibitor, single point] | –
O=C1CCC(=O)N1CCC(c1ccc(F)cc1)c1ccco1 (stereo not drawn) | – | inactive: -1.86%
CCC(=O)N1CCN(c2ccc(NC(=S)NC(=O)c3ccc(OC)c([N+](=O)[O-])c3)cc2)CC1 | inconclusive: 15.8 µM [quencher, partial curve] | –
CC(C)(Oc1ccc(Cl)cc1)C(=O)NCCN1C(=O)S/C(=C/c2cccnc2)C1=O | inconclusive: 39.8 µM [quencher, side channel, single point] | –
CC(=O)Nc1cc(NC(C)=O)c(N=Nc2ccccc2)cc1C | inconclusive: 20 µM [quencher, side channel, single point] | –
O=C(CSc1ccc(-c2cccc([N+](=O)[O-])c2)nn1)N1CCCC1 | inconclusive: 5.62 µM [quencher, side channel, partial curve] | –
O=C(Cn1c2ccc(F)cc2c2nc3n(c(=O)c21)CCS3)N1CCCC1 | inconclusive: 3.98 µM [fluorescent, side channel, single point] | –
O=[N+]([O-])c1ccc(NC(=S)N2CCc3ccccc32)cc1 | inconclusive: 25.1 µM [quencher, side channel, partial curve] | –
CCC(Oc1ccccc1)C(=O)N1CCC(C(N)=O)CC1 (stereo not drawn) | – | inactive: -5.53%
Cc1cc(C(=O)OCC(=O)N2CCCC2)c2ccccc2n1 | inconclusive: 20 µM [quencher, side channel, partial curve] | –
O=C(N/N=C\c1cc2c(cc1[N+](=O)[O-])OCO2)c1cccs1 | inconclusive: 3.98 µM [quencher, side channel, full curve] | –
Cc1ccc2nc(/C(C#N)=C\c3ccc(N4CCOCC4)o3)[nH]c2c1 | inconclusive: 20 µM [quencher, side channel, partial curve] | –
Cn1cc(C(=O)N/N=C/c2ccc3c(c2)OCO3)c2ccccc21 | inconclusive: 15.8 µM [quencher, side channel, partial curve] | –
O=C(/C=C/c1ccco1)N(Cc1ccccc1F)C1CCS(=O)(=O)C1 (stereo not drawn) | inconclusive: 31.6 µM [quencher, side channel, single point] | –
O/C(=C\c1nc2ccccc2[nH]1)c1cccs1 | inconclusive: 28.2 µM [quencher, side channel, partial curve] | –
CCCC(=O)N(Cc1cc(=O)[nH]c2ccccc12)c1cccc(C)c1 | – | inactive: 23.1%
Cc1cc(N=Nc2ccccc2)c(NCC(O)C(O)C(O)CO)cc1C (stereo not drawn) | inconclusive: 15.8 µM [quencher, side channel, partial curve] | –
O=C(NNC(=O)C1CCN(Cc2ccccc2)CC1)c1cccc(Cl)c1 | inconclusive: 7.08 µM [quencher, side channel, single point] | –
COc1ccc(C(=O)NC(=S)NCc2ccco2)cc1 | – | inactive: -1.33%
CCOC(=O)N1CCN(C(=O)CSc2ccc(C(F)(F)F)cc2[N+](=O)[O-])CC1 | inconclusive: 28.2 µM [quencher, single point] | –
